# According to publication PMC12136788:
# The list shows a part of the results.
# T1: UNK ZnF1-3 (human, UniProt Q9C0B0 31-174)
# T1 sequence: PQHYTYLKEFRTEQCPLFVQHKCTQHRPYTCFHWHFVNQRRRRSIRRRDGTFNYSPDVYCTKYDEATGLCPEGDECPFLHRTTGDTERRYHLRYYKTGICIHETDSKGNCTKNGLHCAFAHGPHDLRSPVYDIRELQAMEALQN
# B1: chr19:33076771:33076772:+_ENSG00000105185_ENST00000590247|hu_mus|motif|central (ssRNA)
# RNA: GGGAGUUCUACAGUCCGACGAUCCGCCAUCUGUAUAAGGUAGUUCUCCACUGCUUUAGUUUUUUCAGGCUUUACAAGUGCGGAGUUACUUAAUCUGGCCCGGGCUGACUGAUCCAGAACUUGGGCUAAGAUACUGUUUCUCAUCAACAGAGGAUUGAGCAUCA
# B2: chr18:211299:211300:+_ENSG00000101557_ENST00000383589|hu_hu|FALSE|FALSE (ssRNA)
# RNA: GGGAGUUCUACAGUCCGACGAUCUCUGGAUUAUAGAAAUGAUCAACAAAUAACAUUUAUUUUCACAUCUAAGCAUAAAUACUAAAAUGAAGAUUACUGUUCACUUUCCUCUUCCAUUAUUUCAACUCUGCGAGGCCCAUAGAGCAACAGAGGAUUGAGCAUCA
# B3: chr2:217002811:217002812:+_ENSG00000079246_ENST00000392132|hu_hu|FALSE|FALSE (ssRNA)
# RNA: GGGAGUUCUACAGUCCGACGAUCCAAGGAUGAAAACAUGUAUUGCCGCAAGUCUUCCAUGAAAGGCAGCUGCACAUACACUAAACACUCAUAGUUAUGCUUGAUAUGAGGAAAAGCCACGCCGACUUGAGGAUUAGCUCUUUUCAACAGAGGAUUGAGCAUCA
# B4: chr8:117878989:117878990:-_ENSG00000164754_ENST00000297338|hu_hu|hu_hu_hu_mus_True|58_98 (ssRNA)
# RNA: GGGAGUUCUACAGUCCGACGAUCCCAGAGGCCCUCGUUUACUGAGAACAAAAUGUGCGUAGAACAUUUUUCUUAUUGGCUAUGAAAUAAGAAGAAACCUGGAUCUCGGCGGGGAGCCGGGAGGGGUGGGUGGCCCGGGGAGGGCAACAGAGGAUUGAGCAUCA
# B5: chr4:25749455:25749456:-_ENSG00000091490_ENST00000264868|hu_hu|hu_hu_hu_mus_False|1_18 (ssRNA)
# RNA: GGGAGUUCUACAGUCCGACGAUCGCACUAUGACCUCUAGAAAAAUCCACAGGGGGAAAAAAUGUAAACCAAUGUACAAUGUUAUCGCCUUCCCUGUGUGUGGAGUGUUUGUCUCAAUAUUUCAAGGAGCUGCUGGACUGCUAGCAACAGAGGAUUGAGCAUCA
# B6: chr11:121174221:121174222:+_ENSG00000109929_ENST00000392789|hu_hu|FALSE|FALSE (ssRNA)
# RNA: GGGAGUUCUACAGUCCGACGAUCUGUUGCACAGAAGAAAUAAAGGAUGUAAGCACCAACAUUUGUUACAAUCAGAAGACUAAUAGCUUGUCGGAAGAUGUCAUCUUCUGGCCAUGUGGCUGGAUACACGUAUGGUGUAAAAAACAACAGAGGAUUGAGCAUCA
# B7: chr16:94690093:94690094:+_ENSMUSG00000040785_ENSMUST00000117648|mus_hu|mus_mus_mus_hu_True|8_28 (ssRNA)
# RNA: GGGAGUUCUACAGUCCGACGAUCGGGCUGGGAUGACGGACACACAGCCUCGAUUCCAGGGGGAAAAAGUCUUAGUCGAUACUAAUUAAAAAGUGUUAAUGAUUUUUAUUACCAAAAUUACAUCUAUUUGAAUCAUAAAGCAAACAACAGAGGAUUGAGCAUCA
# B8: 174012945_174013065_346_3pUTR_ENSMUSG00000026553_ENSMUST00000135192|mouse|control|control (ssRNA)
# RNA: GGGAGUUCUACAGUCCGACGAUCUCUUCGUCUCGAAUUUGGUUAGCAUCCUUCAGGCCUCGGGCUCCUAGGUCAGGUUAGCGGGUCCCGCCGCUCCCGGUGGCACUCCCAAGGCUUCCACGUCAGCUACUCCCGGGUCGCGGCCAACAGAGGAUUGAGCAUCA
# B9: chr2:202488911:202488912:-_ENSG00000155755_ENST00000286196|hu_mus|hu_hu_hu_mus_False|58_88 (ssRNA)
# RNA: GGGAGUUCUACAGUCCGACGAUCAUUGAAACAUUUUUCAUAAUCUCAGAGAUGUUUUCAGCAUUAUGUAACAAAAGAUCUAUUACAAAUACAUGUAUCUUAUAAAAAUACACUUAAAAACACGAGUGGGGAGCGCAGGCGCCACAACAGAGGAUUGAGCAUCA
# B10: chr5:40767622:40767623:-_ENSG00000132356_ENST00000397128|hu_mus|hu_hu_hu_mus_False|28_58 (ssRNA)
# RNA: GGGAGUUCUACAGUCCGACGAUCAUCUUUUAUUGCGGCCCUCUUCAUGGGAUCCACCUGCAGCAUAUGUUUCAAAAGGCUAAUCACUGAAGGGUUUAAGUACUGAGGGGUAUAGAAGAUCCCAUCACAUAUCUUCUUAAAAAGCAACAGAGGAUUGAGCAUCA
# B11: chr22:46125322:46125323:+_ENSG00000130638_ENST00000252934|hu_hu|FALSE|FALSE (ssRNA)
# RNA: GGGAGUUCUACAGUCCGACGAUCAAACACAGGGAUGUCAUCCUUGGUGAGUGGCUCAUCACUCGUUAUCUUGGCUAUCAUAAGGUCUAACAGUGUAACUCUUUCUUGAUUGUUCAGUUUGGGAAACAUGGCUUGUACCAAUUCCAACAGAGGAUUGAGCAUCA
# B12: chr3:10015032:10015033:+_ENSMUSG00000027533_ENSMUST00000029046|mus_mus|mus_mus_mus_hu_True|8_18 (ssRNA)
# RNA: GGGAGUUCUACAGUCCGACGAUCGUUUUUACCAUCACAAGUGAUGAUACAAUCUGGCUUGGCCAUUGCGCCCAUUUUUCGCAAAGCUAUUCCCACUCCUAGCUCCUUCAUGUAUUCCUCAAAGCCGUGGCUUUCCACCAGGCGCAACAGAGGAUUGAGCAUCA
# B13: chr3:7442581:7442582:+_ENSMUSG00000027499_ENSMUST00000028999|mus_hu|motif|central (ssRNA)
# RNA: GGGAGUUCUACAGUCCGACGAUCUAUUGUACAAUACAAAACAGUGUAAAUAACACAGCAGUAACACACAGAUACGUAAUGCGGAAAACAGUGCUUUCUGGAUCUUUCUUUUACUGGGUGAACACUUGAGCCAGAGAUAUUUAACAACAGAGGAUUGAGCAUCA
# B14: chr13:41657021:41657022:+_ENSG00000120688_ENST00000379487|hu_mus|FALSE|FALSE (ssRNA)
# RNA: GGGAGUUCUACAGUCCGACGAUCCACAGAGCACAGAGCAGCUUGGAAAGGACACCCCUUCCAUCCAUAGCUUCACAGUCACUCGUCGUCACCUCGCUGUCUUAAGUUUCGAGAUUUUCCAUUUUCAAGUCUUCUCUUUUUGAACAACAGAGGAUUGAGCAUCA
# Molecular target: T1, UNK ZnF1-3
# Test: nsRBNS (natural sequence RNA bind-n-seq); RBNS binding buffer (assumed for nsRBNS): 25 mM Tris pH 7.5, 150 mM KCl, 3 mM MgCl2, 0.01% Triton X-100, 500 ug/ml BSA, 20 U/ml SUPERase-In, 4 C; UNK is unkempt and MSI1 is Musashi-1; names of the RNAs are library labels; protein concentration not given here; high values mean tight binding
row,Binder,binding signal
1,B1,0.632 enrichment R
2,B2,1.2 enrichment R
3,B3,0.458 enrichment R
4,B4,1.67 enrichment R
5,B5,1.09 enrichment R
6,B6,1.07 enrichment R
7,B7,1.02 enrichment R
8,B8,0.79 enrichment R
9,B9,0.7 enrichment R
10,B10,1.35 enrichment R
11,B11,0.76 enrichment R
12,B12,0.64 enrichment R
13,B13,0.744 enrichment R
14,B14,1.11 enrichment R
